Data as given in publication PMC4336329 (PLoS ONE, 2015).
In all, about 310,000 compounds went through this assay and about 2,200 (0.71%) showed an effect of 50% or more. Effects have a minus sign here. Some of the results follow.

Target: human ether-à-go-go-related gene (hERG) potassium channel (human, UniProt Q12809)
Assay: primary screen, population patch clamp on CHO cells stably expressing hERG

Sequence of human ether-à-go-go-related gene (hERG) potassium channel (Q12809 whole entry, looked up): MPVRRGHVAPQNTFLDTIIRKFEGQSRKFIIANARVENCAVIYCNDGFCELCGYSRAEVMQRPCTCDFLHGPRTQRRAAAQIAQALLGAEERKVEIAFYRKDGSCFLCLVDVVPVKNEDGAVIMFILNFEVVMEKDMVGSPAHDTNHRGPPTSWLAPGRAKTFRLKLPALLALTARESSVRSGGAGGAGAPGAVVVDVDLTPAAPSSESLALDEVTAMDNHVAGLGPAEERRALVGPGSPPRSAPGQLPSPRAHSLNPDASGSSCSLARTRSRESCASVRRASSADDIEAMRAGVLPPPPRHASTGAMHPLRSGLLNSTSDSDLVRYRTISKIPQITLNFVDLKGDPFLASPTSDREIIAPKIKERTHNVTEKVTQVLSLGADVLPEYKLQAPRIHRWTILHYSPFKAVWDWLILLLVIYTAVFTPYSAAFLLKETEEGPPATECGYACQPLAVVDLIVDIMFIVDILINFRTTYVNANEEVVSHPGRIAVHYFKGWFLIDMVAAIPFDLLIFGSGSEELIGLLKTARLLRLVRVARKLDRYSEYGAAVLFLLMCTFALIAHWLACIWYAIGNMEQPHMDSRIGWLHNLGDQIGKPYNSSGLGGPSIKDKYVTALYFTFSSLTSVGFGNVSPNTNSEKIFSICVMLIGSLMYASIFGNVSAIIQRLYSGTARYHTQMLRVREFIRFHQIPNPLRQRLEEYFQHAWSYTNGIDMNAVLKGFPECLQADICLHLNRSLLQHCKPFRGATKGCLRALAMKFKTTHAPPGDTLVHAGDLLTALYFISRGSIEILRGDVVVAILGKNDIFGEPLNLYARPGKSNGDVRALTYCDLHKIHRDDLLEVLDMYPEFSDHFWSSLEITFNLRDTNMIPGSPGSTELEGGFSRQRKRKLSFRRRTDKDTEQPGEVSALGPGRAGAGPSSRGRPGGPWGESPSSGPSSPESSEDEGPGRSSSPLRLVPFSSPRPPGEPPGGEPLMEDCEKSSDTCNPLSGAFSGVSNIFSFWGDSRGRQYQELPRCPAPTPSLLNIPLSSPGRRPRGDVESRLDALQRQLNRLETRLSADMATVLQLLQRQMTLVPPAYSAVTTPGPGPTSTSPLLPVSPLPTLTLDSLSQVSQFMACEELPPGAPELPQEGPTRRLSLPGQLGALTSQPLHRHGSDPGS

Compound | hERG current change (%, negative = inhibition) at 1uM [%]
Cc1ccc(NC(=O)CN2C(=O)N/C(=C/c3ccc(N4CCOCC4)cc3)C2=O)cc1 | -4.04
Cc1ccc(CN(C(=O)Cn2nnc3ccccc32)C(C(=O)NCc2ccco2)c2ccc(C)o2)cc1 (stereo not drawn) | 6.99
N#Cc1c(C(F)(F)F)cc(-c2cccc(Cl)c2)[nH]c1=O | 14.7
COc1ccc(C(c2c(N)[nH]c(=S)[nH]c2=O)c2c(N)[nH]c(=S)[nH]c2=O)cc1 | 13.9
CCCCCCOc1ccc(N2C(=O)CC(N3CCN(C(=O)c4ccco4)CC3)C2=O)cc1 (stereo not drawn) | 10.3
CCN1c2ccccc2-c2nc3ccccc3n2C1c1ccco1 (stereo not drawn) | 3.47
NS(=O)(=O)c1cnccc1NCCc1ccccc1 | 14.4
Cc1cc(NC(=O)COn2nnc3ccc(S(C)(=O)=O)cc32)ccc1Br | -2.22
Cc1nn(CC(=O)Nc2ccc(Cl)cc2)c(=O)c2cc(-c3ccccc3)nn12 | 18.8
O=C(C1CCCCC1)N1CCN=C1SCc1cccc([N+](=O)[O-])c1 | 3.79
Cc1cccc(C(C)C)c1NC(=O)C(C)OC(=O)Cc1n[nH]c(=O)c2ccccc12 (stereo not drawn) | 16.5
O=C(NNC(=O)c1ccc(Cl)cc1Cl)Nc1ccccc1 | 8.54
COc1ccc(CNC(=O)NS(=O)(=O)c2ccc(C)cc2)cc1 | 5.34
CC(C)CNc1nc(NC(C)(C)C)nc(Oc2ccc(=O)[nH]n2)n1 | 5.16
Cc1ccc(-n2c(Cc3cccn3C)nnc2SCC(=O)NC2CCCCC2)cc1 | -7.66
Cc1cc(C)nc(NC(=S)Nc2ccccc2)n1 | 2.62
O=C(Nc1cccc(S(=O)(=O)N2CCCCC2)c1)c1ccc2ncsc2c1 | -4.22
COc1ccc(/C=N/NC(=O)c2sccc2C)c2ccccc12 | 11.5
COc1ccccc1/C=C1\S/C(=N/NC(=O)c2cccc(Br)c2)NC1=O | 12.2
COc1cc2cnc(-c3ccccc3)c(-c3ccc([N+](=O)[O-])cc3)c2cc1OC | 15.4
CCn1c(O)c(/C=N/n2cnnc2)sc1=S | 9.03
COc1cc(-c2noc(C)n2)cc(OC)c1OC | 15.5
COc1cc(OC)c2c(O)c3c(c(-c4c5c(c(O)c6c(OC)cc(OC)cc46)CO[C@@H](C)[C@H]5O)c2c1)[C@H](O)[C@H](C)OC3 | 9.73

Compound | hERG current change (%, negative = inhibition) at 1uM [%]
CCOc1ccc(NC(=O)COc2ccc(S(=O)(=O)N3CCCC3)cc2)cc1 | 10.7
CSc1ncccc1C(=O)OCc1ccc(Br)cc1 | 12.5
CCC(CC)=NNc1ccc(S(N)(=O)=O)cc1[N+](=O)[O-] | 8.83
Cc1ccc(-c2nnn(CC(=O)N(CC3CCCO3)C(C(=O)NC3CCCC3)c3ccc(O)cc3)n2)o1 (stereo not drawn) | 4.52
CCn1cc(-c2cc(C(=O)O)c3ccccc3n2)cn1 | 17.9
CC(=O)Nc1nc(C)c(Oc2ccccc2)c(=O)[nH]1 | -0.98
COC(=O)c1c(NC(=O)c2nc3ccccc3s2)sc2c1CC(C)(C)NC2(C)C | 13.5
CCO.CCn1c(COc2ccc3c(c2)OCO3)nnc1SCC(=O)O | 2.98
COc1ccccc1C1NC(=O)NC(C)=C1C(=O)OC1CCCCC1 (stereo not drawn) | 8.27
COC(=O)CSc1nc2ncc(Cl)cc2[nH]1 | -0.29
Cc1ccc(C(=O)Nc2ncccc2C)cc1S(=O)(=O)N1CCOCC1 | 14.2
CCc1ccc(NC(=O)C2CC(=O)N(C(C)C)C2)cc1 (stereo not drawn) | 6.97
O=C(Nc1nnc2n1CCS2)c1ccco1 | 15.8
CN(C)S(=O)(=O)c1ccc(C(=O)NCc2nc3ccccc3s2)cc1 | 6.26
COC(=O)C1=C(O)/C(=C\c2cc(C)n(-c3ccc(F)cc3)c2C)N=C1C | -1.63
COC(=O)c1c(NC(=O)Cc2ccccc2)sc(C)c1C | 8.47
CC(C)C(C)NC(=O)CN1C(=O)NC2(CCc3ccccc32)C1=O (stereo not drawn) | 14.4
O=C(COC(=O)c1cncc(Br)c1)NCc1ccccc1Cl | 16
O=C(O)c1cccc2c1C(=O)c1cccc3snc-2c13 | 2.12
COc1cccc(NC(=O)CN(C)C(=O)c2c(C)noc2C)c1 | -11.6
N/C(=N\OC(=O)c1cccc(Cl)c1)c1ccccn1 | 16.8
COc1ccc(-n2ncc3c(SCC(=O)NNC(C)=O)ncnc32)cc1 | 9.7
